Assay results from PubChem BioAssay (NCI).
Where “and” joins values, the source holds several entries; their conditions need not be identical. Identical values can stand only once.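 Growth conditions: 96-well plates. Treatment: test compound, 48 hours, 5 concentrations. Analysis: linear interpolation between bracketing concentrations; unreached endpoints set to highest concentration. GI50 marks 50% less growth. Definition used: TGI = concentration required for complete inhibition of growth.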

System: NCI-H322M lung
Experiment: NCI anticancer screen, dose series, 48 h

Structure (SMILES) | TGI | GI50
Cc1cccc(C2=C/C(=C(\SS/C(C(=O)c3ccc(OCC(=O)O)c(Cl)c3Cl)=C3\C=C(c4cccc(C)c4)SS3)C(=O)c3ccc(OCC(=O)O)c(Cl)c3Cl)SS2)c1 | > 100 µM | –
O=[N+]([O-])c1cccc(C2=NOC(C3CCCCC3)C2)c1 (centres undefined) | > 100 µM | –
CCC(C)(O)c1cnc(CC(C)C)c(=O)n1O (centres undefined) | > 100 µM | –
N[C@H](CCC(=O)N[C@@H](Cc1c[nH]c2ccccc12)C(=O)O)C(=O)O | > 100 µM | > 100 µM
O=C1CC(C(O)(C(F)(F)F)C(F)(F)Cl)CCC1C(O)(C(F)(F)F)C(F)(F)Cl (centres undefined) | > 10 µM | –
CO[C@H]1Nc2c(ccc(C)c2O)C(=O)N2C=C(/C=C/C(N)=O)C[C@@H]12 | 0.812 µM | –
Clc1ccc(CSCCc2ccncc2)cc1Cl | 86.3 µM | –
CC(C)[C@H](O)C(=O)N[C@@H](C)C(=O)N[C@@H]1C(=O)N(C)CCc2ccccc21 | > 100 µM | > 100 µM
COC(=O)c1cc2c(o1)-c1nccc3c1c(nc1ccccc13)C2=O | 25.6 µM | 12.4 µM
CCN(CC)CCCCCCNc1cccc2cc(Br)cnc12 | 23.3 µM | 10.7 µM
CCN(CC)CCCNC(=O)c1ccc([N+](=O)[O-])cc1O | > 100 µM | –
N=C(N)c1ccc(-c2ccc(-c3cccs3)s2)cc1 | 1.66 µM | 0.255 µM
C=C1c2cc3c(cc2CC12Cc1cc4c(cc1C2=O)CCC4)CCC3 (centres undefined) | > 100 µM | –
O=[N+]([O-])c1ccc(/C=C/c2cc(-c3ccccc3)nc3ccc4ccccc4c23)cc1 | > 100 µM | –
C=CCNC(=S)N=Nc1c(O)[nH]c2ccc([N+](=O)[O-])cc12 | > 100 µM | –
CCc1c[n+]([O-])c(C)cc1[N+](=O)[O-] | > 100 µM | –
COC(=O)/C(=N/O)C(C(=O)C=C(C)C)C(=O)C(=O)Nc1nc2ccc([N+](=O)[O-])cc2s1 (centres undefined) | > 100 µM | –
COc1ccc(-c2c3c([nH]c(=S)c2C#N)CC(C)(C)CC3=O)cc1 | > 100 µM | –
O=C1Sc2ccccc2C(=O)N2CSCC12 (centres undefined) | > 100 µM | –
CC1=C2C(=C[C@H]3[C@]4(C)CCCC(C)(C)[C@H]4CC[C@]34O[C@H]24)OC1=O | > 100 µM | –
S=C(/N=c1\sc(Nc2ccc(Cl)cc2)nc2sc3c(c12)CCN(N1CCc2c(sc4nc(Nc5ccc(Cl)cc5)s/c(=N\C(=S)Nc5ccc(Cl)cc5)c24)C1)C3)Nc1ccc(Cl)cc1 | 47.5 µM | –
NC(CC1=CS(=O)(=O)c2ccc(Cl)cc21)C(=O)O (centres undefined) | > 100 µM | –
Nc1nc(N)c(N=O)c(Nc2ccc(Br)cc2)n1 | 56.7 µM | –
O=C(O)C(SC1=NNC2(C(=O)N1)c1ccccc1-c1ccccc12)SC1=NNC2(C(=O)N1)c1ccccc1-c1ccccc12 | > 10 µM | –
c1coc(-c2c3ccc(=[N+]4CCCCC4)cc-3oc3cc(N4CCCCC4)ccc23)c1 | 0.55 µM | 0.176 µM

Structure (SMILES) | TGI | GI50
NNC1=N/C(=C\c2ccco2)C(Cl)=N1 | > 100 µM | –
CCOC(=O)c1c(-c2ccccc2)c(-c2ccccc2)cn1C | > 10 µM | –
COc1ccc(-c2nccn2-c2ccc(OC)cc2)cc1 | > 100 µM | 34.9 µM
N/C(=N\S(=O)(=O)c1c(C(F)(F)F)cccc1C(F)(F)F)Nc1ccc(Cl)cc1 | 56.8 µM | –
Cc1cn(-c2cc(C(=O)Nc3cccc(-n4ccc5c(NC(=O)c6ccccc6)nccc54)c3)cc(C(F)(F)F)c2)cn1 | 17 µM | 0.58 µM
CC(=O)O/N=C/c1c2ccccc2cc2ccccc12 | > 100 µM | –
CN(C)C(=S)SSC(=S)N(C)C | 70.5 µM and > 100 µM and > 61.8 µM | 23.5 µM and 58.5 µM and 28.3 µM
c1ccc2c(c1)[nH]c1c2cc[n+]2cc3c(cc12)CCCC3 | 8.77 µM and 12 µM | –
CC(C)CC(C/C=C1/CC(CO)(COC(=O)C(C)(C)C)OC1=O)CC(C)C (centres undefined) | 21.5 µM and 4.9 µM | –
N#CC(N=Nc1ccc(Cl)cc1)c1nc2ccccc2o1 (centres undefined) | > 100 µM | –
CC1(C)C2CC(=O)C1(C)C(O)C2Br (centres undefined) | > 100 µM | –
COc1ccc(-c2nc(-c3cc(OC)cc(OC)c3)[nH]c2-c2ccc(OC)cc2)cc1 | > 100 µM | > 100 µM
CN(C(=O)c1ccc([N+](=O)[O-])cc1)c1ccccc1 | > 100 µM | –
Cc1ccc(C)c(N2C/C(=N\NC(=O)CC#N)C(c3nc4ccccc4s3)C(=O)C2=O)c1 (centres undefined) | > 100 µM | –
CCN1c2ccccc2-c2c3c1cc(C)cc3c1ccccc1[n+]2CC | 5.56 µM | –
Cc1cn([C@@H]2C[C@H](CO)[C@@H](O)C2)c(=O)[nH]c1=O | > 100 µM | –
COc1ccc(-c2cnnn2-c2nonc2-n2cccc2)cc1 | > 100 µM | 0.631 µM
CNc1ncnc2c1cnn2COCC(O)CO (centres undefined) | > 100 µM | –
NCCCN1CCN(CCCNc2ccc3nnn4c5ccccc5c(=O)c2c34)CC1 | 68.4 µM | –
O=C(NCCCN(CCCCN(CCCNC(=O)C(F)(F)F)Cc1ccc2ccccc2c1)Cc1ccc2ccccc2c1)C(F)(F)F | > 100 µM | –
Cc1ccc(CC[P+](=O)CCc2ccc(C)nc2)cn1 | > 100 µM | –
Nc1cc(Br)c(-c2nnc(CCC(=O)c3nc4ccccc4[nH]3)o2)c(Br)c1 | > 100 µM | 8.15 µM
O=C(O)c1cccc(COc2ccc([N+](=O)[O-])cc2Cl)c1 | > 100 µM | 36.9 µM
O=C(Oc1cc(=O)c(OC(=O)c2ccccc2)co1)c1ccccc1 | > 100 µM | –
CCOCN1COCN(C)C1=O | > 100 µM | –

Structure (SMILES) | TGI | GI50
Nc1ccccc1O.O.O=C(O)C1[O][Sb][O]C1C(=O)O (centres undefined) | > 100 µM | 97.3 µM
C=CC(=O)N1CN(C(=O)C=C)CN(C(=O)C=C)C1 | 95.4 µM | 31.2 µM
CC(C)(C)OC(=O)NCCC(N)=S | > 100 µM | –
C[C@@H]1S[C@H](c2ccccc2F)N2Cc3ccccc3N=C12 | > 100 µM | –
Cn1c(=O)c2c(nc(C(=N)SCC(=O)O)n2C)n(C)c1=O | > 100 µM | –
O=C(Cc1nc2c3c(ccc2[nH]c1=O)C(=O)c1ccccc1C3=O)C(=O)Nc1ccccc1[N+](=O)[O-] | > 100 µM | –
C=Cc1ccc(C)[n+](C[Si](C)(C)O[Si](C)(C)C[n+]2cc(C=C)ccc2C)c1 | > 100 µM | –
C[C@]12CC[C@@H]3c4ccc(O)cc4CC[C@H]3[C@@H]1C/C(=C\c1ccncc1)[C@@H]2O | > 100 µM | –
CC(C)=C1CCC(CN(C)C)C1=O (centres undefined) | > 100 µM | –
Cn1ccnc1C(O)(c1nccn1C)c1nccn1C | > 100 µM | –
N#CCCN1C/C(=C/c2ccc(Br)cc2)C(=O)/C(=C/c2ccc(Br)cc2)C1 | 11.4 µM | 3.07 µM
CC(C)(C)c1ccc2c(c1)S(=O)(=O)Nc1ccc(Cl)cc1NS(=O)(=O)c1cc(C(C)(C)C)ccc1OCCOCCOCCO2 | > 100 µM | –
O=C(NCc1ccc(Cn2c(=O)sn(-c3ccccc3)c2=O)cc1)OCc1ccc2cccc(O)c2n1 | 3.26 µM | 1.6 µM
ClCCN(CCCl)c1ccc(CNc2ccccc2)cc1 | > 100 µM | 27.5 µM
S=c1[nH]c2ccc(Br)cc2c(=S)s1 | 81.6 µM | –
NC(=O)C(=O)CC(=O)c1ccccc1NC1=CC(=O)C(=O)c2ccccc21 | > 100 µM | –
CCC1CN2CCc3cc(OC)c(OC)cc3C2CC1CC1c2cc(OC)c(OC)cc2CCN1C(=O)C1CCCN1 (centres undefined) | > 100 µM | –
COC(=O)CN1c2nc(C#N)c(C#N)nc2N(CC(=O)OC)c2nc(C#N)c(C#N)nc21 | 30.2 µM | –
OC(c1cc(-c2ccc(C(F)(F)F)cc2)nc(C(F)(F)F)c1)C1CCCCN1 (centres undefined) | 4.77 µM and 10.2 µM | 1.98 µM and 3 µM
O=C(c1ccco1)c1c(C(F)(F)F)n([O-])c2ccc(C(F)(F)F)cc2[n+]1=O | 2.98 µM | 1.58 µM
CCOC(=O)NC(=O)c1cn(C2CCCCC2)c(=O)[nH]c1=O | > 100 µM | –
N#CC(=Nc1ccccc1N(C(=O)c1ccccc1)C(=O)c1ccccc1)c1ccccc1 | > 100 µM | –
Cc1ccc(OCCn2cc(Nc3ccccc3)c(=O)n(CCOc3ccc(C)cc3)c2=O)cc1 | > 100 µM | –
CC(=O)Oc1cc(C(F)(F)F)ccc1C(=O)OC1(C)OC(=O)c2ccc(C(F)(F)F)cc2O1 (centres undefined) | > 100 µM | –
COc1ccc(/C(C)=C(\c2ccc(OCCN3CCCCCC3)cc2)c2ccc(OC(=O)C3CCCCC3)cc2)cc1 | 7.04 µM | 2.19 µM

Structure (SMILES) | TGI | GI50
O=C(Nc1ccccc1F)c1cc2ccc(O)cc2oc1=Nc1ccccc1F | 4.6 µM | –
COc1ccc(/C=C2\C[C@H]3[C@@H]4CCC5=C/C(=N/O)CC[C@]5(C)[C@H]4CC[C@]3(C)\C2=N\O)cc1OC | > 100 µM | –
O=C(CN(c1ccccc1)c1ccccc1)N1c2ccccc2C2C=CC=CC21 (centres undefined) | > 55.1 µM | –
O=C(CNc1c(Cl)cccc1Cl)NC1C=Cc2ccc(S(=O)(=O)Nc3c(Cl)cccc3Cl)cc2C1=O (centres undefined) | > 100 µM | –
O=C(/C=C/c1ccccc1)c1ccccc1 | > 10 µM | –
C/C1=C\CC[C@@]2(C)O[C@@H]2C[C@@H](C2(C)CO2)CC/C(C)=C/CC1 (some centres undefined) | 69 µM | –
Oc1[nH]c2ccc(Br)cc2c1N=NC(=S)Nc1ccc(F)cc1 | > 100 µM | –
O=C(CC(=O)C1CCOC1=O)C(=O)Nc1cccc(Cl)c1 (centres undefined) | > 100 µM | –
Cc1c(N2C(=O)C(Cl)C2c2ccc(Cl)cc2)c(=O)n(-c2ccccc2)n1C (centres undefined) | > 100 µM | –
CCc1ccc2c(c1)C(=O)c1c-2n(CCCN=[N+]=[N-])c(=O)c2cc([N+](=O)[O-])ccc12 | > 50 µM | > 50 µM
N#CC1=C(c2ccccc2)NNC(c2ccc(Cl)cc2)CC1=O (centres undefined) | > 100 µM | –
CC(C)(C)[Si](C)(C)OC1[C@@H](CNC(=O)NC(=O)CCl)O[C@@H](n2cnc3c(N)ncnc32)[C@H]1O[Si](C)(C)C(C)(C)C (some centres undefined) | 17.5 µM | 9.73 µM
CC(C(=O)N1C(=O)N(C(=O)C(C)C(O)c2ccccc2)C2CCCCC21)C(O)c1ccccc1 (centres undefined) | > 100 µM | –
COC(=O)c1cc2c(cc1CC1Cc3cc4c(cc3C1)CCC4)CCC2 | > 100 µM | –
CC12CCC3C(CCC4CC(OC(=O)Cc5ccc(N(CCCl)CCCl)cc5)CCC43C)C1CCC(=O)N2 (centres undefined) | 32.3 µM | –
c1csc(-c2ccc(-c3cccs3)c3nsnc23)c1 | > 100 µM | –
N#CCc1nc(-c2ccccc2)n[nH]1 | > 100 µM | –
CC(=O)c1cccn1/C=C(\OC(=O)OC(C)(C)C)c1ccc[nH]1 | > 100 µM | –
Cc1ccccc1C1=[N+]([O-])c2ccc(Cl)cc2C1=O | 48.2 µM | –
COC(=O)C1=COC(C)C2CN3CCc4c([nH]c5ccccc45)C3CC12 (centres undefined) | > 100 µM | 46.9 µM and > 100 µM
COc1cc2c(/C=N\N=C(N)N)c[nH]c2cc1C | 29.4 µM | 11.2 µM
COC(c1ccc(C(C)(C)C)cc1)(c1ccc(C(C)(C)C)cc1)c1ccc(C(C)(C)C)cc1 | > 100 µM | –
COc1cc2cc(Oc3ccc(NC(=O)c4cc(C(F)(F)F)cc(C(F)(F)F)c4)cc3)c(C)nc2cc1OC | > 50 µM | > 50 µM
